Experimental data from patent US7592316B2, “Peptides as NS3-serine protease inhibitors of hepatitis C virus” (Schering Corporation, priority 2000, dated 2009).

These molecules were tested against HCV NS3/NS4A protease (strain 1a) (Hepatitis C virus genotype 1a, UniProt P27958) (assay: biochemical). Details: Table 5; HCV NS3/NS4A protease, spectrophotometric assay, 30° C., pH 6.5; read-out: Ki* Range.

Row | Structure (SMILES) | Ki [nM]
1 | C=CCCC(NC(=O)[C@@H]1[C@H]2[C@@H](CN1C(=O)[C@@H](NC(=O)OC(C)(C)C)C(C)(C)C)C2(C)C)C(=O)C(N)=O (some centres unmarked) | 101 to 1000
2 | CCCC(NC(=O)[C@@H]1CC(C)(C)CN1C(=O)[C@@H](NC(=O)O[C@H](C)C(C)C)C(C)(C)C)C(=O)C(N)=O (some centres unmarked) | > 1000
3 | CCCC(NC(=O)C1C2C(CN1C(=O)C(NC(=O)O[C@H](C)C(C)C)C1Cc3ccccc3C1)C2(C)C)C(=O)C(N)=O (some centres unmarked) | 101 to 1000
4 | C=CCCC(NC(=O)[C@@H]1C2C(CN1C(=O)[C@@H](NC(=O)OC(C)(C)C)C1CCCCC1)C2(C)C)C(=O)C(N)=O (some centres unmarked) | 101 to 1000
5 | CCCC(NC(=O)C1C2CC(C3CC32)N1C(=O)C(NC(=O)OC(C)(C)C)C1CCCCC1)C(=O)C(N)=O (centres unmarked) | > 1000
6 | CCCC(NC(=O)C1C2C(CN1C(=O)[C@H](NC(=O)OC(C)(C)C)C1CCCC(C(=O)OC(C)(C)C)C1)C2(C)C)C(=O)C(N)=O (some centres unmarked) | 101 to 1000
7 | CC(C)(C)CC(=O)N1C[C@H]2[C@@H]([C@H]1C(=O)NC(CC1CC1)C(=O)C(N)=O)C2(C)C (some centres unmarked) | > 1000
8 | CC1(C)[C@@H]2[C@@H](C(=O)NC(CC3CC3)C(=O)C(N)=O)N(C(=O)CC3CCCCC3)C[C@@H]21 (some centres unmarked) | > 1000
9 | CC(C)CC(NC(=O)[C@@H]1[C@@H]2[C@H](CN1C(=O)[C@@H](NC(=O)OC(C)(C)C)C(C)(C)C)C2(C)C)C(=O)C(N)=O (some centres unmarked) | 101 to 1000
10 | C=CCC(NC(=O)[C@@H]1[C@@H]2[C@H](CN1C(=O)[C@@H](NC(=O)OC(C)(C)C)C(C)(C)C)C2(C)C)C(=O)C(N)=O (some centres unmarked) | > 1000
11 | CCCC(NC(=O)[C@@H]1[C@@H]2[C@H](CN1C(=O)[C@@H](NC(=O)OC(C)(C)C)C1CCCC1)C2(C)C)C(=O)C(N)=O (some centres unmarked) | 101 to 1000
12 | CC(C)(C)OC(=O)N[C@H](C(=O)N1C[C@H]2[C@@H](C1C(=O)NC(CC1CC1)C(=O)C(N)=O)C2(C)C)C1Cc2ccccc2C1 (some centres unmarked) | 1 to 100
13 | CC(C)(C)NC(=O)N[C@H](C(=O)N1C[C@H]2[C@@H]([C@H]1C(=O)NC(CC(F)(F)F)C(=O)C(N)=O)C2(C)C)C1CCCCC1 (some centres unmarked) | 101 to 1000
14 | CC(C)(C)NC(=O)N[C@H](C(=O)N1C[C@H]2[C@@H]([C@H]1C(=O)NC(CC(F)(F)F)C(=O)C(N)=O)C2(C)C)C(C)(C)C (some centres unmarked) | > 1000
15 | CCCC[C@H](NC(=O)[C@@H]1[C@H]2[C@@H]3CC[C@@H](C3)[C@H]2CN1C(=O)[C@@H](NC(=O)OCC(C)C)C(C)(C)C)C(=O)C(=O)NCC(=O)NC(C(=O)N(C)C)c1ccccc1 (some centres unmarked) | > 1000
16 | CCCCC(NC(=O)[C@@H]1[C@H]2[C@@H]3CC[C@@H](C3)[C@H]2CN1C(=O)[C@@H](NC(=O)OCC(C)C)C(C)(C)C)C(=O)C(=O)NCC(=O)NC(C(=O)N(C)C)c1ccccc1 (some centres unmarked) | 101 to 1000
17 | CCCC(NC(=O)[C@@H]1[C@H]2OC(C)(C)O[C@H]2CN1C(=O)[C@@H](NC(=O)OC(C)(C)C)C(C)(C)C)C(=O)C(=O)NCC(=O)NC(C(=O)N(C)C)c1ccccc1 (some centres unmarked) | 1 to 100
18 | CCC[C@H](NC(=O)[C@@H]1[C@H]2OC(C)(C)O[C@H]2CN1C(=O)[C@@H](NC(=O)OC(C)(C)C)C(C)(C)C)C(=O)C(=O)NCC(=O)NC(C(=O)N(C)C)c1ccccc1 (some centres unmarked) | 1 to 100
19 | CCCC[C@@H](NC(=O)[C@@H]1[C@H]2OC(C)(C)O[C@H]2CN1C(=O)[C@@H](NC(=O)OC(C)(C)C)C(C)(C)C)C(=O)C(=O)NCC(=O)NC(C(=O)N(C)C)c1ccccc1 (some centres unmarked) | 101 to 1000

Row | Structure (SMILES) | Ki [nM]
20 | CCCCC(NC(=O)[C@@H]1[C@H]2OC(C)(C)O[C@H]2CN1C(=O)[C@@H](NC(=O)OC(C)(C)C)C(C)(C)C)C(=O)C(=O)NCC(=O)NC(C(=O)N(C)C)c1ccccc1 (some centres unmarked) | 101 to 1000
21 | CC(=O)N1CC2C([C@H]1C(=O)NC(CC1CC1)C(=O)C(=O)NCC(=O)N[C@H](C(=O)N(C)C)c1ccccc1)C2(C)C (some centres unmarked) | > 1000
22 | CN(C)C(=O)[C@@H](NC(=O)CNC(=O)C(=O)C(CC1CC1)NC(=O)[C@@H]1C2C(CN1C(=O)CC(C)(C)C)C2(C)C)c1ccccc1 (some centres unmarked) | 101 to 1000
23 | CC(C)OC(=O)N[C@H](C(=O)N1CC2C([C@H]1C(=O)NC(CC1CC1)C(=O)C(=O)NCC(=O)N[C@H](C(=O)N(C)C)c1ccccc1)C2(C)C)C(C)(C)C (some centres unmarked) | 1 to 100
24 | CCCC(NC(=O)C1[C@@H]2[C@H](CN1C(=O)[C@@H](NC(=O)OC(C)(C)C)C(C)(C)C)C2(C)C)C(=O)C(=O)NCC(=O)N[C@H](C(=O)N(C)C)c1ccccc1 (some centres unmarked) | 1 to 100
25 | CCCC(NC(=O)C1[C@H]2[C@@H](CN1C(=O)[C@@H](NC(=O)OCC(C)C)C(C)(C)C)C2(C)C)C(=O)C(=O)NCC(=O)N[C@H](C(=O)N(C)C)c1ccccc1 (some centres unmarked) | 1 to 100
26 | CC(OC(=O)N[C@H](C(=O)N1CC2C([C@H]1C(=O)NC(CC1CC1)C(=O)C(=O)NCC(=O)N[C@H](C(=O)N(C)C)c1ccccc1)C2(C)C)C(C)(C)C)C1CC1 (some centres unmarked) | 1 to 100
27 | CC(=O)N[C@H](C(=O)N1CC2C([C@H]1C(=O)NC(CC1CC1)C(=O)C(=O)NCC(=O)N[C@H](C(=O)N(C)C)c1ccccc1)C2(C)C)C(C)(C)C (some centres unmarked) | 1 to 100
28 | CN(C)C(=O)[C@@H](NC(=O)CNC(=O)C(=O)C(CC1CC1)NC(=O)[C@@H]1[C@@H]2[C@H](CN1C(=O)OC(C)(C)C)C2(C)C)c1ccccc1 (some centres unmarked) | > 1000
29 | CC(=O)O[C@H](C(=O)N1CC2C([C@H]1C(=O)NC(CC1CC1)C(=O)C(=O)NCC(=O)N[C@H](C(=O)N(C)C)c1ccccc1)C2(C)C)C(C)(C)C (some centres unmarked) | > 1000
30 | CN(C)C(=O)[C@@H](NC(=O)CNC(=O)C(=O)C(CC1CC1)NC(=O)[C@@H]1C2C(CN1C(=O)CC1CCCCC1)C2(C)C)c1ccccc1 (some centres unmarked) | 101 to 1000
31 | CN(C)C(=O)[C@@H](NC(=O)CNC(=O)C(=O)C(CC1CC1)NC(=O)[C@@H]1C2C(CN1C(=O)[C@@H](O)C(C)(C)C)C2(C)C)c1ccccc1 (some centres unmarked) | 101 to 1000
32 | CCCC(NC(=O)C1C2CCC(C2)N1C(=O)[C@H](NC(=O)OC(C)(C)C)C(C)(C)C)C(=O)C(=O)NCC(=O)N[C@H](C(=O)N(C)C)c1ccccc1 (some centres unmarked) | 101 to 1000
33 | CCCC(NC(=O)C1C2CCC(C2)N1C(=O)C(NC(=O)OC(C)(C)C)C1CCCCC1)C(=O)C(=O)NCC(=O)N[C@H](C(=O)N(C)C)c1ccccc1 (some centres unmarked) | 1 to 100
34 | CCCCC(NC(=O)C1C2CCC(C2)N1C(=O)C(NC(=O)OC(C)(C)C)C(C)(C)C)C(=O)C(=O)NCC(=O)NC(C(=O)N(C)C)c1ccccc1 (centres unmarked) | 1 to 100
35 | CCCCC(NC(=O)C1C2CCC(C2)N1C(=O)C(NC(=O)OC(C)(C)C)C1CCCCC1)C(=O)C(=O)NCC(=O)NC(C(=O)N(C)C)c1ccccc1 (centres unmarked) | 1 to 100
36 | CCCC(NC(=O)C1(C)CC(C)(C)CN1C(=O)[C@H](NC(=O)OC(C)(C)C)C1CCCCC1)C(=O)C(=O)NCC(=O)N[C@H](C(=O)N(C)C)c1ccccc1 (some centres unmarked) | > 1000
37 | CCCC(NC(=O)C1(C)CC(C)(C)CN1C(=O)[C@H](NC(=O)OC(C)(C)C)C(C)(C)C)C(=O)C(=O)NCC(=O)N[C@H](C(=O)N(C)C)c1ccccc1 (some centres unmarked) | > 1000
38 | CN(C)C(=O)[C@@H](NC(=O)CNC(=O)C(=O)C(CCc1ccccc1)NC(=O)C1[C@H]2[C@@H](CN1C(=O)C(NC(=O)OC(C)(C)C)C1CCC(F)(F)CC1)C2(C)C)c1ccccc1 (some centres unmarked) | 101 to 1000

Row | Structure (SMILES) | Ki [nM]
39 | CCCCC(NC(=O)[C@@H]1C2CC(C3CC32)N1C(=O)C(NC(=O)OC(C)(C)C)C1CCCCC1)C(=O)C(=O)NCC(=O)N[C@@H](C(=O)N(C)C)c1ccccc1 (some centres unmarked) | 1 to 100
40 | CCCC(NC(=O)[C@@H]1C2CC(C3CC32)N1C(=O)C(NC(=O)OC(C)(C)C)C(C)(C)C)C(=O)C(=O)NCC(=O)N[C@@H](C(=O)N(C)C)c1ccccc1 (some centres unmarked) | > 1000
41 | CCCC(NC(=O)C1C2CC(C3CC32)N1C(=O)C(NC(=O)OC(C)(C)C)C(C)(C)C)C(=O)C(=O)NCC(=O)N[C@@H](C(=O)N(C)C)c1ccccc1 (some centres unmarked) | > 1000
42 | CCCC(NC(=O)[C@@H]1C2CC(C3CC32)N1C(=O)C(NC(=O)OC(C)(C)C)C1CCCCC1)C(=O)C(=O)NCC(=O)NC(C(=O)N(C)C)c1ccccc1 (some centres unmarked) | 1 to 100
43 | CCCC(NC(=O)C1[C@H]2[C@@H](CN1C(=O)C(NC(=O)OC(C)(C)C)C1CCC(F)(F)CC1)C2(C)C)C(=O)C(=O)NCC(=O)N[C@H](C(=O)N(C)C)c1ccccc1 (some centres unmarked) | 1 to 100
44 | CCCC(NC(=O)C1C2C(CN1C(=O)C(NC(=O)OCC(C)C)C1CCC(F)(F)CC1)C2(C)C)C(=O)C(=O)NCC(=O)N[C@H](C(=O)N(C)C)C1CCCCC1 (some centres unmarked) | 1 to 100
45 | CC(C)CC(NC(=O)C1C2CCC(C2)N1C(=O)C(NC(=O)OC(C)(C)C)C1CCCCC1)C(=O)C(=O)NCC(=O)NC(C(=O)N(C)C)c1ccccc1 (centres unmarked) | 1 to 100
46 | CC(C)CC(NC(=O)C1C2CCC(C2)N1C(=O)C(NC(=O)OC(C)(C)C)C(C)(C)C)C(=O)C(=O)NCC(=O)NC(C(=O)N(C)C)c1ccccc1 (centres unmarked) | 1 to 100
47 | CCCC(NC(=O)C1[C@@H]2[C@@H](CN1C(=O)[C@H](C1CCCCC1)N(CCC(C)C)C(=O)OC(C)(C)C)C2(C)C)C(=O)C(=O)NCC(=O)N[C@H](C(=O)N(C)C)c1ccccc1 (some centres unmarked) | > 1000
48 | CCCC(NC(=O)C1[C@H]2[C@@H](CN1C(=O)[C@@H](NCCC(C)C)C1CCCCC1)C2(C)C)C(=O)C(=O)NCC(=O)N[C@H](C(=O)N(C)C)c1ccccc1 (some centres unmarked) | 1 to 100
49 | CN(C)C(=O)[C@@H](NC(=O)CNC(=O)C(=O)C(CC1CC1)NC(=O)[C@@H]1[C@H]2CCC(C)(C)O[C@H]2CN1C(=O)[C@@H](NC(=O)OC(C)(C)C)C(C)(C)C)c1ccccc1 (some centres unmarked) | 101 to 1000
50 | CC(C)CC(NC(=O)C1[C@H]2[C@@H](CN1C(=O)[C@@H](NC(=O)OC(C)C)C(C)(C)C)C2(C)C)C(=O)C(=O)NCC(=O)N[C@H](C(=O)N(C)C)c1ccccc1 (some centres unmarked) | 1 to 100
51 | CCCC(NC(=O)[C@@H]1[C@H]2[C@@H](CN1C(=O)C(NCCC(C)c1ccccc1)C(C)(C)C)C2(C)C)C(=O)C(=O)NCC(=O)N[C@H](C(=O)N(C)C)c1ccccc1 (some centres unmarked) | 1 to 100
52 | CCCC(NC(=O)[C@@H]1[C@H]2[C@@H](CN1C(=O)C(NCCc1ccccc1)C(C)(C)C)C2(C)C)C(=O)C(=O)NCC(=O)N[C@H](C(=O)N(C)C)c1ccccc1 (some centres unmarked) | 1 to 100
53 | CCCC(NC(=O)[C@@H]1[C@H]2[C@@H](CN1C(=O)C(NCCC(C)(C)C)C(C)(C)C)C2(C)C)C(=O)C(=O)NCC(=O)N[C@H](C(=O)N(C)C)c1ccccc1 (some centres unmarked) | 1 to 100
54 | CCCC(NC(=O)[C@@H]1[C@H]2[C@@H](CN1C(=O)[C@@H](NC(=O)OC(C)C)C(C)(C)C)C2(C)C)C(=O)C(=O)NCC(=O)N[C@H](C(=O)N(C)C)c1ccccc1 (some centres unmarked) | 1 to 100
55 | CCCC(NC(=O)[C@@H]1C2C(CN1C(=O)[C@@H](NC(=O)OC(C)(C)C)C1CCCCC1)C2(Br)Br)C(=O)C(=O)NCC(=O)N[C@H](C(=O)N(C)C)c1ccccc1 (some centres unmarked) | 1 to 100
56 | CN(C)C(=O)[C@@H](NC(=O)CNC(=O)C(=O)C(CC1CC1)NC(=O)[C@@H]1C2CC(C)(C)CC2CN1C(=O)[C@@H](NC(=O)OC(C)(C)C)C1CCCCC1)c1ccccc1 (some centres unmarked) | 1 to 100
